Reference: paper PMC12136788
The other results are listed elsewhere or left out.

B1: chr19:41288738:41288739:-_ENSMUSG00000025016_ENSMUST00000025989|mus_hu|motif|central (ssRNA)
RNA: GGGAGUUCUACAGUCCGACGAUCAACUUGGGGGGAAAAAAGAUAAUCACUUUAGACAUUCAGUUAAAAUGUAGUUUAUCGGAAUCUCAAAAUGUUUAAUAAAAACAAGUAUCUUCUCCAUUUAACACUUUGCUUUCUAACUGUCAACAGAGGAUUGAGCAUCA
B2: 38682815_38682935_5030_CDS_ENSG00000105738_ENST00000222345|human|control|control (ssRNA)
RNA: GGGAGUUCUACAGUCCGACGAUCCUGCUCUGGCCCCAGGUUGUCCAUGAUGAUGAGUUUCUUCAGGUCAUCCUCGAUGGUGGAUUUGUAGUUCUUCCGUGGUGACCGGAGGUCUCGGAGGGAUGCCCUCAACCUCGGUUGCCCCAACAGAGGAUUGAGCAUCA
B3: 60086205_60090372_1448_CDS_ENSMUSG00000020986_ENSMUST00000021375|mouse|control|control (ssRNA)
RNA: GGGAGUUCUACAGUCCGACGAUCCUCAUUUUCAGACACGCAAGGUCCUUUUGAAUUAAGAGACACACAGGGUCCAAUAGCUCCUGAAAUCUUUAUUUCCCUUGAAGUCUUUAUUUCUAAUGUGCCACCAAAGCCCAUUUUAAACAACAGAGGAUUGAGCAUCA
B4: 8934024_8936927_1313_CDS_ENSG00000134313_ENST00000427284|human|control|control (ssRNA)
RNA: GGGAGUUCUACAGUCCGACGAUCAAGUAAUCGCCCAUCUUUGGGAUUUCUUAAAAGCAGUUCUGCCAGUUUCCGGCUCCUUCCACGAAUAGCAAUAUGCAAGGGAGUAUCUCCUUUCUUAUCUACAGCAGACACUUUAGCACCCAACAGAGGAUUGAGCAUCA
B5: chr19:16212804:16212805:+_ENSG00000167460_ENST00000300933|hu_mus|hu_hu_hu_mus_False|8_8 (ssRNA)
RNA: GGGAGUUCUACAGUCCGACGAUCAACAAUUCUGGAGUGAAGGAAAGAUGUAACAUGGAACAGCAUUAAAGCUCAGUCAGAAGGCACAUGGGCAACAAUGAUCACCCCAGCAUUCUCGCUUGGAAUGUGCUUGAGAAAUCUGUUCAACAGAGGAUUGAGCAUCA
B6: chr5:22955990:22955991:+_ENSMUSG00000029004_ENSMUST00000094962|mus_mus|FALSE|FALSE (ssRNA)
RNA: GGGAGUUCUACAGUCCGACGAUCUGCAUUGGUAUCCAAAAUACUGGGGCAUGCCAGCCACAGUGCUCAUUGCAAACAUCUAAGUGCAUCCACAAACCCUGUGAUGGUCACACACCAGACACCCGAACCCUGUUAUCGGCUCGACAACAGAGGAUUGAGCAUCA
B7: chr7:151048522:151048523:+_ENSG00000013374_ENST00000566856|hu_mus|hu_hu_hu_mus_True|1_18 (ssRNA)
RNA: GGGAGUUCUACAGUCCGACGAUCCUGUUUCUUAUUUAUUACGAUCUUGAUGUAAUUUUCUUGAAAUCCGAAAGUUUCAGCUAUUUGACACCUCAGGUCUCUACCAGUGACAUGCAAUCGGGUCUCCAACAAGCUUUUCCUAUCCAACAGAGGAUUGAGCAUCA
B8: chr14:66974463:66974464:+_ENSMUSG00000022044_ENSMUST00000074523|mus_hu|mus_mus_mus_hu_False|58_78 (ssRNA)
RNA: GGGAGUUCUACAGUCCGACGAUCUUGUAGGACGACUUAUUCAGGGGAUCGGCCAGGAAGCAAGAGCAGAACAAGGACACUAGUGGGAGCUCCUUCAUCUUCUCUUUGUAGGCAGCAAGGGUCAUGUUUCUGGGAUCUGGUGGCCAACAGAGGAUUGAGCAUCA
B9: chr2:25130317:25130318:+_ENSMUSG00000026965_ENSMUST00000028341|mus_mus|FALSE|FALSE (ssRNA)
RNA: GGGAGUUCUACAGUCCGACGAUCGGAGUCUGGAAAGUCUCGGAUGAUGCUGAAAAGCUCCUCGAUGCGUAGGGUGGCAUAGAUACGGUAGAAGAAUCUCUGUACGUGGCAGCGCCAACGACGCAGUGUGUUCCCAGCUUCUGGCAACAGAGGAUUGAGCAUCA
B10: 86257456_86258509_4960_CDS_ENSG00000068654_ENST00000263857|human|control|control (ssRNA)
RNA: GGGAGUUCUACAGUCCGACGAUCCAAAGAUACUACCAGGGAGCUCAUGUCAAAGUUGAUCUUCAUCAGAGGGAGCUUCACUGUCACCUGGCACCACAGGCUCUCCUCGGUGUCGUACUGGUAGUCAUCUAUGAACGGGUGGAUCAACAGAGGAUUGAGCAUCA
B11: chr12:85018817:85018818:+_ENSMUSG00000010608_ENSMUST00000048155|mus_hu|motif|central (ssRNA)
RNA: GGGAGUUCUACAGUCCGACGAUCUUCUGCUUCUUCAUCAAGUACCAUGGCAACAUCAUCUAAAAUGCUCUGGGGUGAACGGUGAGCCAUAACCUUAGAACAAACAAAAUCAACUAAUGUAGCUUCUUCUUCACCUAUAUAUUCCAACAGAGGAUUGAGCAUCA
B12: chr9:99427540:99427541:-_ENSMUSG00000032468_ENSMUST00000035043|mus_hu|motif|central (ssRNA)
RNA: GGGAGUUCUACAGUCCGACGAUCUUCUCCAUCAACCAAAACAUUUACCAGGGUCAUCGAUACCUGGGGGUUUUCAAAAGCGGAAACUGAGAAACAUUUCAGUGCUUGCAUUCGAACUUUGUAGGACAGUGAGGUUAGUAGGUGCAACAGAGGAUUGAGCAUCA
B13: chr16:8843268:8843269:+_ENSMUSG00000022507_ENSMUST00000023150|perfect_dup|motif|central (ssRNA)
RNA: GGGAGUUCUACAGUCCGACGAUCACCAUGCAGAGCUAUGGCUUCCCGGAAGGGUUGCAAAUCAGUCUCUACAGAUGAGCGGGUUUCCGUUGAAGUAGCUCGGUUAGGGGACACUACAGUCAGUCUUGGGGGAGCUCUAGAGUUCAACAGAGGAUUGAGCAUCA
B14: chr7:54825262:54825263:-_ENSG00000132432_ENST00000352861|hu_hu|hu_hu_hu_mus_False|68_78 (ssRNA)
RNA: GGGAGUUCUACAGUCCGACGAUCCUGCCGGCUGGGCUCCACAAACUGCAUUACCUGCAUGACUGCCUACCCAACCGGGAUUGAGAGCGUAGAGACACGUAGCUCAGGAGAGAACCGAGCCCAACGGAACCGGAAGCUGGCAACCAACAGAGGAUUGAGCAUCA
B15: chr11:104189435:104189436:+_ENSMUSG00000018411_ENSMUST00000106992|mus_mus|FALSE|FALSE (ssRNA)
RNA: GGGAGUUCUACAGUCCGACGAUCGCCCUGGGAGCCUGAUCACAAACCCUGCUUGGCCAAGGAAGCAGACACUUCAUCGGCUAGUGUGGCAAGCUGUGGUGAGUCCACCAUGUCGAUGCUGCCCGUGGAAGACACAUUGCUGAGCAACAGAGGAUUGAGCAUCA
B16: 130618844_130618964_2048_3pUTR_ENSMUSG00000031256_ENSMUST00000033609|mouse|control|control (ssRNA)
RNA: GGGAGUUCUACAGUCCGACGAUCAAUGUCACAGAAAAUAUACACACUACGACAACAGAAUAAACUGCUUUCCUUUGGAGCAAUGGCGAUGUAAGACCUCCACCUGGCGCCAUCUGCCUCAUCCGGGGAGGUUCGGAUGCAGACCAACAGAGGAUUGAGCAUCA
B17: chr5:145543945:145543946:-_ENSG00000133706_ENST00000545646|hu_hu|hu_hu_hu_mus_True|8_48 (ssRNA)
RNA: GGGAGUUCUACAGUCCGACGAUCCUGAACGGCCAGUGGUGGGAAAUAAUCAAGCCAGUGCUCUGCUUCAGAAAACUUCACUAUGUCUUCAUCAGACAGCCCAAGGGAUUUCAUAAUGUCCCACUGGUAUUUAGAAGAUCCUGCCAACAGAGGAUUGAGCAUCA
B18: chr12:39756943:39756944:-_ENSG00000139116_ENST00000544797|hu_mus|hu_hu_hu_mus_False|28_78 (ssRNA)
RNA: GGGAGUUCUACAGUCCGACGAUCGGUUUGGCUGUUACCCCCAAGGGAAUCCUGCAAUAGUCUUGUUAGCUUAGAGUCUCUGUAAGGGACAUGGGUGGCUCUCUUGCUCUUGUCUCCCAAGGCGCUGAUUACAUUCCCAAGAGCCAACAGAGGAUUGAGCAUCA
B19: chr7:106416527:106416528:+_ENSMUSG00000055407_ENSMUST00000127492|mus_mus|motif|central (ssRNA)
RNA: GGGAGUUCUACAGUCCGACGAUCGCAGGCCCUUGUGAUGCACGGCCACGCCAUGUUAGCCACAAAGCCUUUUUGUGGUCCGGAAUCAAAUCUCCAAUCUCCCUUUAACCCCAACCCAGACCCGCCAAUGUGGUUCCCACCGCUCAACAGAGGAUUGAGCAUCA
B20: chr2:160604994:160604995:+_ENSG00000136536_ENST00000409591|hu_hu|FALSE|FALSE (ssRNA)
RNA: GGGAGUUCUACAGUCCGACGAUCCCUUGAAGAUUCAUCUCUUCCCUCUCGCCUCCUUCUAGAGAACAAAGGUGUGCAUCUAUUUCUAAGUGAGGAAGAUAACCAUGGUCCUGUAUUUCUACCUUCAGAUUCUUGGUUAAAAUUCAACAGAGGAUUGAGCAUCA
B21: chr4:99962207:99962208:+_ENSG00000164024_ENST00000296411|hu_mus|motif|central (ssRNA)
RNA: GGGAGUUCUACAGUCCGACGAUCCCCAGCAGCAAUGUCCAAAACUUCUCUGGCAAGCCUACACACGAGUCGCAUCCCUUCGGUAUCUUCAGAUGAGAGUAACUUAAUCUGAGAGGUACCUUUAAGAGCCUGCUCCGAUUCAGACAACAGAGGAUUGAGCAUCA
B22: chr4:140556289:140556290:+_ENSMUSG00000036622_ENSMUST00000037055|mus_mus|mus_mus_mus_hu_False|1_1 (ssRNA)
RNA: GGGAGUUCUACAGUCCGACGAUCGAUGGAGCUCACCAGGCCCCCUUUUGCCGUGCAGAACCCUGUGCGGGUCACCACUGCCAGGACGUGCGGUCCCACAUAGGCCCGGGCCUGCAAGAUGAGGGUCCCGCAGAAGAGGGUGUGCAACAGAGGAUUGAGCAUCA

Target: T1, UNK ZnF1-3 (human, UniProt Q9C0B0 31-174)
T1 sequence: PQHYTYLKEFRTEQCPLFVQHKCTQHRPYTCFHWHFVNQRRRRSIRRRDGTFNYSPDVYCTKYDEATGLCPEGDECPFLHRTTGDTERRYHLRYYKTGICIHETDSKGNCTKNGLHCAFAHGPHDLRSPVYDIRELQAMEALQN
Assay: nsRBNS (natural sequence RNA bind-n-seq); RBNS binding buffer (assumed for nsRBNS): 25 mM Tris pH 7.5, 150 mM KCl, 3 mM MgCl2, 0.01% Triton X-100, 500 ug/ml BSA, 20 U/ml SUPERase-In, 4 C; UNK is unkempt and MSI1 is Musashi-1; names of the RNAs are library labels; protein concentration not given here; high values mean tight binding

**Q.** How did the binding signal turn out when B1 was run?
**A.** Its binding signal is 0.776 enrichment R.

**Q.** How did the binding signal turn out when B2 was run?
**A.** The binding signal was 0.559 enrichment R.

**Q.** For B3, which binding signal is on record?
**A.** The binding signal was 0.867 enrichment R.

**Q.** With B4 as the binder, how does the binding signal read?
**A.** The binding signal was 1.04 enrichment R.

**Q.** How did the binding signal turn out when B5 was run?
**A.** The binding signal was 1.29 enrichment R.

**Q.** Which binding signal does the source give for B6 here?
**A.** Its binding signal is 0.699 enrichment R.

**Q.** How did the binding signal turn out when B7 was run?
**A.** Its binding signal is 0.633 enrichment R.

**Q.** For B8, which binding signal is on record?
**A.** Its binding signal is 2.22 enrichment R.

**Q.** For B9, which binding signal is on record?
**A.** Its binding signal is 0.855 enrichment R.

**Q.** With B10 as the binder, how does the binding signal read?
**A.** The binding signal was 1.15 enrichment R.

**Q.** B11 was tested. Which binding signal did it give?
**A.** The binding signal was 1.46 enrichment R.

**Q.** Which binding signal does the source give for B12 here?
**A.** Its binding signal is 1.39 enrichment R.

**Q.** With B13 as the binder, how does the binding signal read?
**A.** The binding signal was 1.61 enrichment R.

**Q.** B14 was tested. Which binding signal did it give?
**A.** The binding signal was 0.862 enrichment R.

**Q.** Which binding signal does the source give for B15 here?
**A.** Its binding signal is 0.924 enrichment R.

**Q.** B16 was tested. Which binding signal did it give?
**A.** Its binding signal is 1.28 enrichment R.

**Q.** With B17 as the binder, how does the binding signal read?
**A.** The binding signal was 1.08 enrichment R.

**Q.** How did the binding signal turn out when B18 was run?
**A.** Its binding signal is 0.657 enrichment R.

**Q.** B19 was tested. Which binding signal did it give?
**A.** The binding signal was 0.927 enrichment R.

**Q.** For B20, which binding signal is on record?
**A.** The binding signal was 1.23 enrichment R.

**Q.** Which binding signal does the source give for B21 here?
**A.** The binding signal was 0.979 enrichment R.

**Q.** How did the binding signal turn out when B22 was run?
**A.** Its binding signal is 0.506 enrichment R.
